Structures can show the parent of a compound that is named as a salt. At least one read-out could not be matched to a standard name with certainty.
Tested on: bone marrow CD34+ hematopoietic cells
Test: Fetal hemoglobin induction assay
Conditions: Compound Conc. 0.3 (unit not given), compounds added days 7-21

Point of comparison: `COc1cc2c(cc1OCCCN(C)C)[nH]c1ccnc(C(C)C)c12` [Compound 67, (3-{[8-methoxy-1-(propan-2-yl)-5H-pyrido[4,3-b]indol-7-yl]oxy}propyl)dimethylamine hydrochloride], “Fold Induction” value 3.9 fold. Against it:
- COc1cc2c(cc1OCCCN(C)C)[nH]c1ccnc(N3CCCC3)c12 [Compound 92, (3-{[8-methoxy-1-(pyrrolidin-1-yl)-5H-pyrido[4,3-b]indol-7-yl]oxy}propyl)dimethylamine hydrochloride] — lower, 2.3 fold
- COc1cc2c(cc1OCCCN(C)C)[nH]c1ccnc(C)c12 [Compound 90, [3-({8-methoxy-1-methyl-5H-pyrido[4,3-b]indol-7-yl}oxy)propyl]dimethylamine hydrochloride] — lower, 2.4 fold
- COc1cc2c(cc1OCCCN1CCCC1)[nH]c1ccnc(N3CC[C@H](O)C3)c12 [Compound 36, (3S)-1-{8-methoxy-7-[3-(pyrrolidin-1-yl)propoxy]-5H-pyrido[4,3-b]indol-1-yl}pyrrolidin-3-ol hydrochloride] — lower, 3.0 fold
- COc1cc2c(cc1OCCCN(C)C)[nH]c1ccnc(C3CCC3)c12 [Compound 69, [3-({1-cyclobutyl-8-methoxy-5H-pyrido[4,3-b]indol-7-yl}oxy)propyl]dimethylamine hydrochloride] — lower, 2.9 fold
- COc1cc2c(cc1OCCCN1CCCC1)[nH]c1ccnc(C)c12 [Compound 29, 1-[3-({8-methoxy-1-methyl-5H-pyrido[4,3-b]indol-7-yl}oxy)propyl]pyrrolidine hydrochloride] — lower, 3.8 fold
- CCCc1nccc2[nH]c3cc(OCCCN(C)C)c(OC)cc3c12 [Compound 55, [3-({8-methoxy-1-propyl-5H-pyrido[4,3-b]indol-7-yl}oxy)propyl]dimethylamine hydrochloride] — lower, 2.6 fold
- CCc1nccc2[nH]c3cc(OCCCN(C)C)c(OC)cc3c12 [Compound 91, [3-({1-ethyl-8-methoxy-5H-pyrido[4,3-b]indol-7-yl}oxy)propyl]dimethylamine hydrochloride] — higher, 4. fold
- COc1cc2c(cc1OCCCN1CCCC1)[nH]c1ccnc(C3CC3)c12 [Compound 43, 1-[3-({1-cyclopropyl-8-methoxy-5H-pyrido[4,3-b]indol-7-yl}oxy)propyl]pyrrolidine] — lower, 2.0 fold
- COc1cc2c(cc1OCCCN1CCCC1)[nH]c1c(C)cnc(N3CCCC3)c12 [Compound 89, 1-{8-methoxy-4-methyl-7-[3-(pyrrolidin-1-yl)propoxy]-5H-pyrido[4,3-b]indol-1-yl}pyrrolidine hydrochloride] — lower, 3.2 fold
- COc1cc2c(cc1OCCCN1CCCC1)[nH]c1cc(C)ncc12 [Compound 99, 1-[3-({8-methoxy-3-methyl-5H-pyrido[4,3-b]indol-7-yl}oxy)propyl]pyrrolidine hydrochloride] — lower, 3.6 fold
- COc1cc2c(cc1OCCCN(C)C)[nH]c1ccncc12 [Compound 88, [3-({8-methoxy-5H-pyrido[4,3-b]indol-7-yl}oxy)propyl]dimethylamine hydrochloride] — lower, 3.5 fold
- COC[C@H](C)Nc1nccc2[nH]c3cc(OCCCN4CCCC4)c(OC)cc3c12 [Compound 38, 8-methoxy-N-[(2S)-1-methoxypropan-2-yl]-7-[3-(pyrrolidin-1-yl)propoxy]-5H-pyrido[4,3-b]indol-1-amine] — lower, 3.3 fold
- COc1cc2c(cc1OCCCN(C)C)[nH]c1ccnc(C3CCCC3)c12 [Compound 56, [3-({1-cyclopentyl-8-methoxy-5H-pyrido[4,3-b]indol-7-yl}oxy)propyl]dimethylamine hydrochloride] — lower, 3.8 fold
- COc1cc2c(cc1OCCCN1CCCC1)[nH]c1cc(N)nc(C)c12 [Compound 35, 8-methoxy-1-methyl-7-[3-(pyrrolidin-1-yl)propoxy]-5H-pyrido[4,3-b]indol-3-amine hydrochloride] — higher, 4.3 fold
- COc1cc2c(cc1OCCCN1CCCC1)[nH]c1ccnc(C3CCOCC3)c12 [Compound 65, 1-(3-{[8-methoxy-1-(oxan-4-yl)-5H-pyrido[4,3-b]indol-7-yl]oxy}propyl)pyrrolidine hydrochloride] — higher, 6.3 fold
- COc1cc2c(cc1OCCCN1CCCC1)[nH]c1ccncc12 [Compound 31, 1-[3-({8-methoxy-5H-pyrido[4,3-b]indol-7-yl}oxy)propyl]pyrrolidine hydrochloride] — higher, 4.8 fold
- COc1cc2c(cc1OCCCN1CCCC1)[nH]c1ccnc(N3CCCC3)c12 [Compound 39, 1-{8-methoxy-7-[3-(pyrrolidin-1-yl)propoxy]-5H-pyrido[4,3-b]indol-1-yl}pyrrolidine] — lower, 2.8 fold
- CCN(C)CCCOc1cc2[nH]c3ccnc(C4CC4)c3c2cc1OC [Compound 46, [3-({1-cyclopropyl-8-methoxy-5H-pyrido[4,3-b]indol-7-yl}oxy)propyl](ethyl)methylamine hydrochloride] — lower, 2.6 fold

Same assay, conditions: Compound Conc. 0.4 (unit not given), compounds added days 7-21

For `COc1cc2c(cc1OCCCN(C)C)[nH]c1ccnc(C3CC3)c12` [Compound 47, [3-({1-cyclopropyl-8-methoxy-5H-pyrido[4,3-b]indol-7-yl}oxy)propyl]dimethylamine hydrochloride], the “Fold Induction” value was 4.7 fold.

Reference: patent publication US11111243B2, “Azaindole compounds as histone methyltransferase inhibitors” (GLOBAL BLOOD THERAPEUTICS, INC., priority 2017, dated 2021)
